According to the supplement of paper PMC4967469:
By IC50 is meant the dose at which the fit gives 50% viability; a fit beyond the top or the lowest dose is shown as a bound at that dose. AUC sums up the same curve from the lowest dose to the 256-fold higher top dose; the more sensitive the line, the further below 1. An inferred top dose comes from the curve model; the source does not state it.

What was measured:
Assay in all cases: Viability of human cancer cell lines after 72 h of drug (GDSC screen)
CAY10603 = compound: CC(C)(C)OC(=O)Nc1ccc(-c2cc(C(=O)NCCCCCCC(=O)NO)no2)cc1 [CAY10603]; details: top dose 20 µM; top dose inferred
Method: (§1)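 Human cancer cell lines in 384-well plates, medium with 10% serum, drug for 72 h over a 256-fold dose range (nine 2-fold or five 4-fold steps up to the top dose). Adherent lines were fixed and stained with the nucleic acid dye Syto60, suspension lines read with resazurin; signal relative to control wells, capped at 0 and 100%. One two-parameter sigmoid per drug and line, fitted in a mixed model over all curves with the slope shared within a line.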

XMD8-92 = compound: CCOc1cc(N2CCC(O)CC2)ccc1Nc1ncc2c(n1)N(C)c1ccccc1C(=O)N2C [XMD8-92]; details: top dose 10 µM; top dose inferred
Method: as §1

CH5424802 = compound: CCc1cc2c(cc1N1CCC(N3CCOCC3)CC1)C(C)(C)c1[nH]c3cc(C#N)ccc3c1C2=O [CH5424802]; details: top dose 5.12 µM; top dose inferred
Method: as §1

ACHP (KIN001-260) = compound: N#Cc1c(C2CCNCC2)cc(-c2c(O)cccc2OCC2CC2)nc1N [ACHP (KIN001-260)]; details: top dose 20 µM; top dose inferred
Method: as §1

| Cell Line | AUC (CAY10603) | IC50 (CAY10603) [µM] | AUC (XMD8-92) | IC50 (XMD8-92) [µM] | AUC (CH5424802) | IC50 (CH5424802) [µM] | AUC (ACHP (KIN001-260)) | IC50 (ACHP (KIN001-260)) [µM] |
| --- | --- | --- | --- | --- | --- | --- | --- | --- |
| G-401 (kidney, adherent) | 0.432 | 0.797 | 0.925 | > 10 | 0.981 | > 5.12 | 0.935 | > 20 |
| G-MEL (melanoma, adherent) | 0.582 | 2.09 | 0.802 | 4.86 | 0.986 | > 5.12 | 0.967 | > 20 |
| GB-1 (glioma, adherent) | 0.278 | 0.258 | 0.938 | > 10 | 0.976 | > 5.12 | 0.945 | > 20 |
| GI-1 (glioma, adherent) | 0.372 | 0.563 | 0.863 | 8.06 | 0.987 | > 5.12 | 0.942 | > 20 |
| GI-ME-N (neuroblastoma, adherent) | 0.35 | 0.411 | 0.703 | 2.9 | 0.966 | > 5.12 | 0.898 | > 20 |
| GP5d (large intestine, adherent) | 0.608 | 2.39 | 0.881 | 8.58 | 0.967 | > 5.12 | 0.969 | > 20 |
| GR-ST (lymphoblastic leukaemia, suspension) | 0.476 | 1.06 | 0.794 | 5.72 | 0.973 | > 5.12 | 0.877 | > 20 |
| GRANTA-519 (B-cell lymphoma, suspension) | 0.692 | 4.04 | 0.969 | > 10 | 0.991 | > 5.12 | 0.983 | > 20 |
| GT3TKB (stomach, adherent) | 0.676 | 3.62 | 0.842 | 5.85 | 0.99 | > 5.12 | 0.989 | > 20 |
| H9 (lymphoid neoplasm, suspension) | 0.992 | > 20 | 0.799 | 3.84 | 0.988 | > 5.12 | 0.927 | > 20 |
| H513 (mesothelioma, semi-adherent) | 0.972 | > 20 | 0.971 | > 10 | 0.982 | > 5.12 | 0.985 | > 20 |
| H2369 (mesothelioma, adherent) | 0.684 | 4.18 | 0.938 | > 10 | 0.982 | > 5.12 | 0.981 | > 20 |
| H2461 (mesothelioma, adherent) | 0.758 | 8.55 | 0.897 | > 10 | 0.982 | > 5.12 | 0.983 | > 20 |
| H2591 (mesothelioma, adherent) | 0.715 | 6.18 | 0.904 | > 10 | 0.978 | > 5.12 | 0.961 | > 20 |
| H2595 (mesothelioma, adherent) | 0.565 | 2.01 | 0.87 | > 10 | 0.973 | > 5.12 | 0.976 | > 20 |
| H2722 (mesothelioma, adherent) | 0.564 | 1.93 | 0.877 | > 10 | 0.984 | > 5.12 | 0.984 | > 20 |

| Cell Line | AUC (CAY10603) | IC50 (CAY10603) [µM] | AUC (XMD8-92) | IC50 (XMD8-92) [µM] | AUC (CH5424802) | IC50 (CH5424802) [µM] | AUC (ACHP (KIN001-260)) | IC50 (ACHP (KIN001-260)) [µM] |
| --- | --- | --- | --- | --- | --- | --- | --- | --- |
| H2731 (mesothelioma, adherent) | 0.144 | 0.0788 | 0.916 | > 10 | 0.911 | > 5.12 | 0.902 | > 20 |
| H2795 (mesothelioma, adherent) | 0.66 | 3.46 | 0.96 | > 10 | 0.974 | > 5.12 | 0.945 | > 20 |
| H2803 (mesothelioma, adherent) | 0.61 | 2.64 | 0.888 | > 10 | 0.974 | > 5.12 | 0.985 | > 20 |
| H2804 (mesothelioma, adherent) | 0.632 | 3.01 | 0.9 | > 10 | 0.964 | > 5.12 | 0.985 | > 20 |
| H2869 (mesothelioma, adherent) | 0.637 | 3.28 | 0.97 | > 10 | 0.955 | > 5.12 | 0.968 | > 20 |
| H3118 (head and neck, adherent) | 0.379 | 0.562 | 0.911 | > 10 | 0.966 | > 5.12 | 0.97 | > 20 |
| HARA (lung squamous cell carcinoma, adherent) | 0.629 | 3.02 | 0.881 | > 10 | 0.921 | > 5.12 | 0.943 | > 20 |
| HCC38 (breast, adherent) | 0.588 | 2.22 | 0.932 | > 10 | 0.985 | > 5.12 | 0.957 | > 20 |
| HCC1395 (breast, adherent) | 0.863 | > 20 | 0.964 | > 10 | 0.98 | > 5.12 | 0.964 | > 20 |
| HCC1419 (breast, adherent) | 0.747 | 8.83 | 0.945 | > 10 | 0.966 | > 5.12 | 0.95 | > 20 |
| HCC1428 (breast, adherent) | 0.615 | 2.67 | 0.954 | > 10 | 0.972 | > 5.12 | 0.972 | > 20 |
| HCC1569 (breast, adherent) | 0.651 | 3.79 | 0.941 | > 10 | 0.962 | > 5.12 | 0.964 | > 20 |
| HCC1937 (breast, adherent) | 0.604 | 2.53 | 0.949 | > 10 | 0.968 | > 5.12 | 0.962 | > 20 |
| HCC1954 (breast, adherent) | 0.738 | 6.78 | 0.982 | > 10 | 0.982 | > 5.12 | 0.984 | > 20 |
| HCC2157 (breast, suspension) | 0.69 | 4.38 | 0.802 | 5.18 | 0.965 | > 5.12 | 0.986 | > 20 |
